Laboratory results taken from PubChem BioAssay (NCI).
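The compound was tested at five concentrations on cells cultured in 96-well plates, with a 48-hour exposure period. The concentration for 50% growth inhibition is given as GI50. TGI is the concentration that stops growth completely.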

Tested on: NCI-H322M lung
Assay: DTP human tumour cell line panel, 48 h

SMILES | TGI [µM] | GI50 [µM]
Cc1ccc(N/C(Sc2ccccc2)=C(/C(Cl)=C(Cl)Cl)[N+](=O)[O-])c(C)c1 | 66.9 | 
Cc1nc(Cl)c(Cl)c(Cl)n1 | 2.26 | 
CCC(CS(=O)(=O)O)[N+](=O)[O-] (stereo not given) | > 100 | 
O=C(/C=C/C12c3ccccc3C(c3ccccc31)C1C(=O)N(c3ccccc3)C(=O)C12)c1ccc(Cl)cc1 (stereo not given) | > 100 | 2.64
COC(=O)[C@H]1[C@H]2C[C@@H]3c4[nH]c5cc(OC)ccc5c4CCN3C[C@H]2C[C@@H](OC(=O)c2cc(OC)c(OC)c(OC)c2)[C@@H]1OC | 46.7 | 
COc1cc(C2S/C(=C/c3ccccc3)C(=O)N2c2cc(Cl)ccc2Cl)cc(OC)c1OC (stereo not given) | > 100 | 
COc1ccc(N(C)CN(C)c2nc(N(C)C)nc(N(C)C)n2)cc1 | > 100 | 
COc1ccc(-c2cnoc2-c2ccc(OC)c(OC)c2)cc1OC | > 29.8 | 
N#CCCN(CCC#N)C(=O)c1cccc(C(=O)N(CCC#N)CCC#N)c1 | > 100 | 
Cc1cc2cccnc2c2ncccc12 | 4.96 | 0.597
Cc1nc(Cl)c2sc(=S)n(-c3ccc(F)cc3)c2n1 | 24 | 
C=C(C)[C@@H]1C[C@H]2O[C@](O)(C(=C)CC(=O)/C=C(/C)C[C@@H]3OC(=O)[C@]24O[C@@H]34)[C@H]1O | > 100 | 
O=C(CCCn1c(=O)c2sc3ccccc3c2n2nnc(-c3ccccc3)c12)NCCc1cnc[nH]1 | 5.54 | 2.25
CC(C)(C)OC(=O)NC1CC=CCC1NC(=O)OC(C)(C)C (stereo not given) | > 100 | 
O=C(c1ccccc1)C(c1ccccc1)C1(O)C(=O)Nc2ccccc21 (stereo not given) | > 100 | 
O=C1CSC(/C(=C/c2ccccc2)c2nc3ccccc3[nH]2)=N1 | > 100 | 
C#CCSc1nc(N)c2ncn(C3OC(CO)C(O)C3O)c2n1 (stereo not given) | > 100 | 
Cc1cccc(-n2c(C)nc3ccc(NC4OC(CO)C(O)C(O)C4O)cc3c2=O)c1 (stereo not given) | > 100 | 
CCOC(=O)C1=C(C)NC2SC(=O)/C(=C\c3ccccc3Cl)N2C1c1ccccc1 (stereo not given) | > 100 | > 100
Cc1cc(=O)oc2c(CN3CCCCC3)c(O)ccc12 | > 100 | 
O=C(c1ccco1)C1CC(c2ccc3ccccc3c2O)=NN1 (stereo not given) | > 100 | 
CC(CN(C)C)C(=O)c1ccccc1C(=O)O (stereo not given) | > 100 | 
Cc1ccc(NC(=O)CC/C(CC(=O)C(C)(C)C)=N/NC(=O)C(N)=O)cc1C | > 100 | 
N=CCCN(CCC=N)c1ccc(/C=C2\CN(NC(=O)c3ccc(Cl)cc3)C(c3ccccc3)=N2)cc1 | > 100 | 
CCOC(=O)c1cc(/C=C/C(C)=C/C(=O)OC)oc1-c1ccccc1 | > 100 | 
N#CNC(N)=NCCO | > 100 | 

SMILES | TGI [µM] | GI50 [µM]
C=CCN1C(=O)CC1N(CC=C)S(=O)(=O)c1ccc(C)cc1 (stereo not given) | > 100 | 
COC(=O)CCC(C)[C@H]1CCC2C3C(C[C@H](OC(C)=O)[C@@]21C)[C@@]1(C)CCC2(C[C@H]1C[C@H]3OC(C)=O)OOC1(CCC(C)CC1)OO2 (stereo not given in full) | > 100 | 
Cc1cc(N2CCN(C)CC2)nc(NCc2cc(Nc3ccnc4cc(Cl)ccc34)ccc2F)n1 | 8.49 | 2.07
O=c1[nH][nH]c(=O)[nH]1 | > 100 | 
C[C@]12CCC3c4ccc(O)cc4CC[C@H]3C1CC(=O)N(N)C2=O (stereo not given in full) | > 100 | 
Nc1nc(N)c(C2=CCN(Cc3ccccc3)CC2)c(=O)[nH]1 | > 100 | 
COc1ccc(/C(CCl)=C(\Nc2ccccc2)c2ccc(OC)c(OC)c2)cc1OC | > 100 | 
COc1cc2ccccc2c2cc([N+](=O)[O-])oc12 | 7.78 | 
CCOC(=O)[C@@H]1C[C@H]1c1ccc(O)c(O)c1 | > 100 | 
COc1cc(O)c2c(=O)c(OC)c(-c3ccc4c(c3)OCO4)oc2c1 | > 100 | 
Cc1nc2ccccc2c(=O)n1-c1n[nH]c2ccccc12 | > 100 | 
CC(=O)NC1=C(C)C(=O)c2c(nc3n2CCC3OC(=O)c2ccccc2)C1=N (stereo not given) | 7.23 | 
CC(N=C(N)N)C(=O)O (stereo not given) | > 100 | 
[N-]=[N+]=Nc1ccc(CCN2CCN(c3cccc(C(F)(F)F)c3)CC2)cc1I | > 100 | 
Cn1c(NN)nc(-c2ccc([N+](=O)[O-])cc2)c(C#N)c1=O | 27.3 | 
CCC[C@H](O)[C@@H](CNc1cc(NC(C)=O)nc(NC(C)=O)n1)N(Cc1ccccc1)Cc1ccccc1 | 75 | 
CCCN(CCCN)/[N+]([O-])=N\O | > 100 | 
CC1CC(=O)Nc2cc(Cl)ccc2N1C(=O)C1CC1 (stereo not given) | > 100 | 
CCOC(=O)N1CCN(c2c(C)nc(C)[nH]c2=O)CC1 | > 100 | 
N=C(N)C1CN(CCc2cnc[nH]2)C(=O)NC1=O (stereo not given) | > 100 | 
CCCCSN1C(=O)c2ccccc2C1=S | > 100 | 
O=S(=O)(Nc1cc(Br)c(O)c2ccccc12)c1ccc(F)cc1 | 31.5 | 17.3
CCCCCCCC(=O)OC[n+]1ccc(-c2c(COC(=O)NC(C)C)c(COC(=O)NC(C)C)c3n2CCC3)cc1 | > 100 | 
COc1ccc(-c2nn(-c3ccc(NC(=O)c4ccc(Cl)c(C(F)(F)F)c4)cc3)cc2-c2ccncc2)cc1Cl | > 100 | 7.78
C=CCn1c(=O)c2cnc(Nc3ccc(N4CCN(C)CC4)cc3)nc2n1-c1ccc2c(n1)[C@@](O)(CC)CC2 | 15.8 | 0.298
CC1=C(C(=O)N[C@@H](Cc2ccccc2)C(=O)O)N2C(=O)[C@@H](NC(=O)[C@@H](N)CC(C)C)[C@H]2SC1 | > 100 | 
